# “And” between values parts separate entries of the source, which are not always exact repeats. Equal values may be shown once. The campaign covered roughly 350,000 compounds. About 31,000 (8.9%) were called active. Inconclusive results, whose numbers are uncertain, are shown with a selection of clear calls. Calls follow the shape of the dose curve; as a rule, active = well fitted inhibition curve with a large enough effect; inconclusive = small, poorly fitted or top-dose-only effect; inactive = no such curve, though single readings can be large or run the other way. Potencies beside an inconclusive call are fits to weak or partial responses and may not hold up.
# Biological target: Histone-lysine N-methyltransferase EHMT2 (Homo sapiens) (UniProt Q96KQ7)
# Assay: qHTS Assay for Inhibitors of Histone Lysine Methyltransferase G9a; also: nearly all actives have a fitted effect of over 75% in size
# Conditions: G9a H3K9 monomethylation, AlphaScreen, 2 h; activity, negative = inhibition: at 59 µM (top of the series) unless noted
# Summary of the method: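 G9a (20 nM) preincubated 15 min RT with compounds, then 500 nM biotinylated H3K9 peptide and 20 uM SAM added; 2 h RT reaction. Monomethyl-H3K9 product detected by AlphaScreen with anti-H3K9me1 antibody, streptavidin donor and anti-rabbit IgG acceptor beads.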
# % is scaled to controls: 0 for no effect and ±100 for the full control effect; potency is read from the fitted curve at half-maximal effect; tags tell the direction and shape of the fitted curve.
# UniProt Q96KQ7, sequence (Q96KQ7 whole entry, looked up): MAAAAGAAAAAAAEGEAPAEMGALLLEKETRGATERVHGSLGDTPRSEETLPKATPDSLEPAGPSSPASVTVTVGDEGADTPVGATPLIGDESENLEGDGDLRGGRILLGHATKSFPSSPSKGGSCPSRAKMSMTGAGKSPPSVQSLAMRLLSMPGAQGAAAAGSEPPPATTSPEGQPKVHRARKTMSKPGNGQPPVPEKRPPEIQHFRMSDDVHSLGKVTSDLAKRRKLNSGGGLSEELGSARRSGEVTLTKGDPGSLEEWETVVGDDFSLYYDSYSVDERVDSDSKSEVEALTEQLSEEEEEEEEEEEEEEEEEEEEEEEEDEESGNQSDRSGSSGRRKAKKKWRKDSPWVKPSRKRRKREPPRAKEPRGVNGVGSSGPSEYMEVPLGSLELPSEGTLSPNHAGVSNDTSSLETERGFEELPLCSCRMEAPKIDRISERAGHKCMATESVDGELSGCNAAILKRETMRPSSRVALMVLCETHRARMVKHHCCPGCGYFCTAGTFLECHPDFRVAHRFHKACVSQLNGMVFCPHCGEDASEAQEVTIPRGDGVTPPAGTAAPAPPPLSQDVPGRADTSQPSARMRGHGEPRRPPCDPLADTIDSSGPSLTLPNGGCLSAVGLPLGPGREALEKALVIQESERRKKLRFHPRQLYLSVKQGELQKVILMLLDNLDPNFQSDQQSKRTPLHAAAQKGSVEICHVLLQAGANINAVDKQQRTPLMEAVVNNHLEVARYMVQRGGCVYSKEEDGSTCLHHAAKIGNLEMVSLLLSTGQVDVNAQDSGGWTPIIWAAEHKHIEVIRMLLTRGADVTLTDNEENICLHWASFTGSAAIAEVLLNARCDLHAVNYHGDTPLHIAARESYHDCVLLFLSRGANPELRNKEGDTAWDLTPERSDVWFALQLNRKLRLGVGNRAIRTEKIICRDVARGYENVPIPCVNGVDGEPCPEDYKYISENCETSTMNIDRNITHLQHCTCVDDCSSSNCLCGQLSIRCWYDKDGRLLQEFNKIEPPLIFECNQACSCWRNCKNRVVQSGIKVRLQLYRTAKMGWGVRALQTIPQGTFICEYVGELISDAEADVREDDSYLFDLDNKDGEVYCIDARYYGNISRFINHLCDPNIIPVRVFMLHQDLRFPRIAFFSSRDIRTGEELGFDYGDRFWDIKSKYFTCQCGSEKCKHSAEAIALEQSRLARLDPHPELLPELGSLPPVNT
Compound,Potency,"activity, negative = inhibition"
Brc1cccc(CNc2nc3ccccc3n2CCN2CCCCC2)c1,"inconclusive: 39.8 µM [inhibitor, partial curve]",
COc1ccc(C)cc1N(C(=O)c1ccco1)C(C(=O)NC1CCCC1)c1ccc(N2CCOCC2)cc1 (stereo not given),inactive,
O=C(CN1C(=O)CSC1=O)Nc1ccc(C(=O)O)cc1,"inconclusive: 28.2 µM [inhibitor, single point]",
Cn1c(-n2cccc2)c(-c2c(-c3ccc(F)cc3)[nH]c3c2c(=O)n(C)c(=O)n3C)c(=O)n(C)c1=O,inactive,
Cc1cc(C(=O)OC(C)C(=O)N2CCc3ccccc32)ccc1[N+](=O)[O-] (stereo not given),"inconclusive: 50.1 µM [inhibitor, partial curve, poor fit]",
CCCCC(OC(=O)c1cc2occc2n1C)C(=O)NCC1CCCO1 (stereo not given),"inconclusive: 89.1 µM [inhibitor, single point]",
COc1ccc(NC(=O)C2CCCN(C(=O)Nc3ccc(F)cc3)C2)cc1 (stereo not given),inactive,
COC(=O)c1nnn(-c2ccc(F)c(Cl)c2)c1C(=O)OC,"inconclusive: 89.1 µM [inhibitor, partial curve, poor fit]",
Cc1nn(C)c(C)c1/C=C/C(=O)c1ccccc1,"inconclusive: 11.2 µM [inhibitor, partial curve, poor fit]",
COc1ccc(-c2nc(CSCC(=O)NC3CCCc4ccccc43)c(C)o2)cc1 (stereo not given),"inconclusive: 89.1 µM [inhibitor, single point]",
COc1ccc(-n2ccnc(NCc3cccs3)c2=O)cc1OC,"inconclusive: 39.8 µM [inhibitor, single point]",
O=C(CN1CCOCC1)Nc1nc2ccc(Br)cc2s1,active: 50.1 µM,
COC(=O)c1cc(-c2ccc(C)o2)nc2ccccc12,"inconclusive: 1.41 µM [inhibitor, full curve, poor fit]",
COc1ccc([N+](=O)[O-])cc1NC(=S)NC(=O)C(C)(C)C,"inconclusive: 89.1 µM [inhibitor, partial curve, poor fit]",
CCn1c(C(=O)NCc2ccccc2OC)cc2sccc21,inactive,
CCOC(=O)CCCNC(=O)COC(=O)c1cc2ccccc2cc1O,"inconclusive: 89.1 µM [inhibitor, single point]",
OC12CCCCC1C(c1ccc3c(c1)OCO3)N(Cc1ccc(F)cc1)CC2 (stereo not given),"inconclusive: 89.1 µM [inhibitor, single point]",
O=C(CSc1nnnn1C1CC1)N1CCN(c2ccc(O)cc2)CC1,"inconclusive: 1.58 µM [inhibitor, full curve, poor fit]",
O=C(c1cc(-c2cccc(Cl)c2)on1)N1CCOCC1,inactive,
CC(C)C[C@H](NC(=O)c1nc[nH]c1C(=O)N1CCN(C(=O)OC(C)(C)C)CC1)C(=O)OC(C)(C)C,,inconclusive: -65.1% [inhibitor]
CCOC(=O)c1c(C)[nH]c(N=Nc2cccc(OC)c2)c1C,active: 31.6 µM,
COc1ccc(C(=O)Nc2nc3ccc(OC)cc3s2)cc1,"inconclusive: 89.1 µM [inhibitor, single point]",
CCN(CC)CC(=O)NCC1(c2ccccc2)CCOCC1,"inconclusive: 89.1 µM [inhibitor, partial curve, poor fit]",
COc1cccc(C(=O)Nc2sc3c(c2C#N)CCN(C(C)=O)C3)c1,active: 5.01 µM,

Compound,Potency,"activity, negative = inhibition"
Cc1ccc(S(=O)(=O)NC(C)(C)CSc2ccccn2)cc1,"inconclusive: 39.8 µM [inhibitor, single point]",
Cn1cnc2cc(NC(=O)c3ccco3)ccc21,,inactive: -22.5% [at 12.7 µM]
Cc1ccn2c(Nc3ccc4c(c3)OCO4)c(-c3ccc(O)cc3)nc2c1,active: 2.51 µM and active: 35.5 µM,
CCCCOc1ccc(S(=O)(=O)n2nc(C)c(S(=O)(=O)N3CCC(C)CC3)c2C)cc1,inactive,
Cc1cc(C)cc(Nc2ncc3c(n2)CC(c2ccco2)CC3=O)c1 (stereo not given),,inconclusive: -67.3% [inhibitor]
COc1cccc(-c2csc(N3CCN(C(=S)Nc4ccccc4C)CC3)n2)c1,,inactive: -12.5% [at 0.501 µM]
CC1CCN(c2oc(-c3ccccc3F)nc2C#N)CC1,active: 7.94 µM,
O=C(NCc1ccco1)c1cc(-c2ccc3c(c2)OCO3)on1,"inconclusive: 8.91 µM [inhibitor, single point]",
COc1ccc(OC)c(C(=O)NC(CC(N)=O)c2ccc(NCC3CC3)c([N+](=O)[O-])c2)c1 (stereo not given),"inconclusive: 79.4 µM [inhibitor, partial curve, poor fit]",
Cc1ccc(-n2nc(C(=O)N3CCN(c4ccccc4)CC3)c(=O)n(C)c2=O)cc1,inactive,
CCOc1cc(NCCN2CCOCC2)c([N+](=O)[O-])cc1OCC,"inconclusive: 79.4 µM [inhibitor, single point]",
Cc1cc(C)nc(NC(=O)c2ccc(Br)s2)n1,"inconclusive: 31.6 µM [inhibitor, single point]",
O=C(CCNC(=O)c1ccccc1Cl)NCC1COc2ccccc2O1 (stereo not given),"inconclusive: 89.1 µM [inhibitor, single point]",
CCOc1cc2c(C#N)c(N3CCCCC3)nc(N)c2c(N)n1,,inactive: 1.05% [at 12.7 µM]
Cc1ccccc1-n1nnnc1SCC(=O)Nc1ccc(S(=O)(=O)N2CCCC2)cc1,"inconclusive: 70.8 µM [inhibitor, single point]",
Cc1cccc(Cc2cnc(NC(=O)c3ccc4c(c3)CC(c3ccccc3)OC4=O)s2)c1 (stereo not given),inactive,
O=C(NCCNC(=O)c1cccc(O)c1)c1cccc(O)c1,"inconclusive: 79.4 µM [inhibitor, single point]",
CCSc1nc2ccccc2n1CC(N)=O,inactive,
O=S(=O)(NC1CCN(Cc2ccccc2)CC1)c1cccc(S(=O)(=O)N2CCOCC2)c1,"inconclusive: 22.4 µM [inhibitor, single point]",
CN(C)S(=O)(=O)Nc1ccc(-c2cn3ccsc3n2)cc1,inactive,
C/C(=N\Nc1nc2c(s1)CCCC2)c1ccccc1,"inconclusive: 3.55 µM [inhibitor, single point]",
COc1ccc(N2CCN(C(=O)CSc3ccccc3)CC2)cc1,"inconclusive: 22.4 µM [inhibitor, single point]",
COc1ccc(NC(=O)CN2CCN(CC(=O)Nc3ccccc3Cl)CC2)c(OC)c1,active: 44.7 µM,
COc1cccc(C2/C(=C(\O)c3ccc4c(c3)OCCO4)C(=O)C(=O)N2CC2CCCO2)c1 (stereo not given),"inconclusive: 89.1 µM [inhibitor, single point]",

Compound,Potency,"activity, negative = inhibition"
Cn1nc(-c2ccc(Cl)cc2)c2cc(C(=O)N3CCN(c4ccccc4)CC3)sc21,"inconclusive: 79.4 µM [inhibitor, single point]",
Cc1cc(C)c(C(=O)COC(=O)[C@H](C)Nc2ccc(C(F)(F)F)cc2[N+](=O)[O-])c(C)c1,,inconclusive: -58.4% [inhibitor]
Cc1cccc(Nc2nc(N3CCOCC3)nc(N3CCOCC3)n2)c1,"inconclusive: 89.1 µM [inhibitor, single point]",
O=S(=O)(Cc1ccccc1)N(O)c1ccccc1,active: 20 µM,
CCOc1cc(/C=C2\C(=O)ON=C2c2ccccc2)cc(Br)c1O,active: 25.1 µM,
COc1cccc(N2CCN(C(=O)c3cc4cc(Cl)ccc4[nH]3)CC2)c1,active: 70.8 µM,
Cc1cc(C)nc(Nc2cc([N+](=O)[O-])ccc2C)n1,,inconclusive: -71% [inhibitor]
COc1ccc(NC(=O)CN(C)S(=O)(=O)c2ccc3[nH]c4c(c3c2)CCCC4)cc1OC,"inconclusive: 20 µM [inhibitor, single point]",
O=C(Nc1ccc(N2CCCC2)c(Cl)c1)c1ccco1,"inconclusive: 25.1 µM [inhibitor, single point]",
Cc1cccc(C(=O)N2CCNC(=O)C2CC(=O)Nc2cccc(Cl)c2)c1 (stereo not given),inactive,
O=C(CCC1CCCC1)N1CCN(C(=O)COc2ccccc2)CC1,active: 50.1 µM,
O=C(NC(C(=O)c1ccccc1)N1CCOCC1)c1cccs1 (stereo not given),,inconclusive: -90.8% [inhibitor]
COc1ccc2c(c1)[nH]c1c(=O)n(CCCn3ccnc3)cnc12,,inactive: 30.7% [at 12.7 µM]
COc1ccc(N2CCN(Cc3nc4c(c(=O)[nH]c(=O)n4C)n3CC(C)=O)CC2)cc1,"inconclusive: 35.5 µM [inhibitor, single point]",
CCN(CC)CCCN(Cc1cc2cc(OC)ccc2[nH]c1=O)C(=O)Nc1ccc(F)cc1,"inconclusive: 89.1 µM [inhibitor, partial curve, poor fit]",
CNC(=O)c1csc(-c2cccs2)n1,inactive,
CN(C)S(=O)(=O)c1ccc(C(=O)NCC2(N3CCOCC3)CCCCC2)cc1,,inactive: 0.405% [at 2.33 µM]
COc1ccc(OC)c2sc(NC(=O)c3ccc(S(=O)(=O)N(C)C)cc3)nc12,"inconclusive: 89.1 µM [inhibitor, single point]",
CC1CCCCC1NC(=O)COC(=O)c1c2c(nc3ccccc13)/C(=C/c1ccco1)CC2 (stereo not given),"inconclusive: 8.91 µM [inhibitor, full curve, poor fit]",
CC(C)Nc1nnc(SC(C)C(=O)Nc2ccc(N3CCOCC3)cc2)s1 (stereo not given),"inconclusive: 4.47 µM [inhibitor, single point]",
CCOc1ccc(C2NC(=O)NC(C)=C2C(=O)OCc2ccccc2)cc1 (stereo not given),,inactive: -11.7% [at 0.501 µM]
COc1ccc(-c2nc(-c3cccc(C)c3)nc(N3CCN(C)CC3)c2C#N)cc1,active: 79.4 µM,
